Laboratory results taken from PubChem BioAssay AID488969 (Vanderbilt High Throughput Screening Facility, 2010).
Over roughly 110,000 compounds, “z-score” has its median near -0.1; the highest 2% begin near 2. The list shows a part of the results. The source made the active and inactive calls.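 The calls were made as follows: active = z-score in the third read window above 3 or below -3; inactive = the rest.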

Target: Metabotropic glutamate receptor 8 (Rattus norvegicus) (UniProt P70579)
Assay: mGluR8 Gi/Go-coupled signaling modulation – cell-based, rat, thallium flux, HTS, primary screen (AID 488969)
Settings: HEK293 rat mGluR8, GIRK (G protein-gated inwardly rectifying potassium channel) thallium flux, FluoZin2; at 10 µM; stronger effect = higher value; submaximal glutamate (EC20) added with thallium

Chain of UniProt P70579 (P70579 whole entry, looked up): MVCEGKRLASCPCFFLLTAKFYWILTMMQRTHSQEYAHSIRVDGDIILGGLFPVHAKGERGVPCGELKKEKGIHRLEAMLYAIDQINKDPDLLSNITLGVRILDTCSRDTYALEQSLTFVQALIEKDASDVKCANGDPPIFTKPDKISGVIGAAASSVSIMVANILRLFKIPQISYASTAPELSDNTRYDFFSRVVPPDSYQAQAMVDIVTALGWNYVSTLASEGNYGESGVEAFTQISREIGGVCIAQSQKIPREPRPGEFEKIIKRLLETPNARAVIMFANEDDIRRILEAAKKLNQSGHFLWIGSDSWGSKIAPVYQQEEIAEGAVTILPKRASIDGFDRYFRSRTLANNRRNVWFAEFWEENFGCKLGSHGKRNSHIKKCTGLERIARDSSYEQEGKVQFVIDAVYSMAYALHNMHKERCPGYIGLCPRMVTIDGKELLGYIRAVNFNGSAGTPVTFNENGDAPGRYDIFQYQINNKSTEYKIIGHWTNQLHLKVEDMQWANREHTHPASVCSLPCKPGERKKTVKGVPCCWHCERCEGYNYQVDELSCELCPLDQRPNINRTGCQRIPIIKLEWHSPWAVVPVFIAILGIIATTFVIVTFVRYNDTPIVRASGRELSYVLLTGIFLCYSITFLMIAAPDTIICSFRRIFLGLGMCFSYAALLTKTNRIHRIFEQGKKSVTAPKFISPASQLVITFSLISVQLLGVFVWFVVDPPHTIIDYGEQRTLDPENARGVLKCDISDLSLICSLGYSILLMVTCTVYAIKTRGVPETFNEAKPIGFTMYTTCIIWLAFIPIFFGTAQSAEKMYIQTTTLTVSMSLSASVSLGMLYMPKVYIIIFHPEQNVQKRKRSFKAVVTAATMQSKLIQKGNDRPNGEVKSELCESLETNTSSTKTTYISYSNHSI

Compared with `O=C(CSc1ccc2ccccc2c1)NCc1cccs1`, `O=C(Nc1ccc2oc(-c3cccc4ccccc34)nc2c1)c1ncn[nH]1` is lower in z-score: 0.0417 for the first, -0.113 for the second.

Compared with `CCCn1c(SCC(=O)Nc2ccccc2N2CCOCC2)nc2c1c(=O)n(C)c(=O)n2C`, `CCC(C)NC(=O)CCC(=O)Nc1ccc2nc(N3CCOCC3)cc(C)c2c1` (centres undefined) is lower in z-score: -0.0247 for the first, -0.289 for the second.

First: CCOC(=O)C1C(=O)CC(C)(O)C(C(=O)OCC)C1c1ccccc1 (centres undefined)
Second: COC(=O)C1=NN(C(=O)c2ccccc2)C(C)(O)C1 (centres undefined)
The z-score of the first is lower: 0.114 for the first, 0.19 for the second.

First: Cc1cccc(NC(=O)c2cnc3sccn3c2=O)n1
Second: O=C(Nc1nnc(-c2cccs2)o1)c1ccco1
The z-score of the first is higher: 0.185 for the first, -0.203 for the second.

Compared with `CCOC(=O)c1[nH]c(COC(=O)c2ccccc2NC(=O)c2ccco2)c(C(=O)OCC)c1C`, `O=C(Nc1ccc(-c2nc3ccccc3c(=O)o2)cc1)c1ccco1` is lower in z-score: 0.679 for the first, -0.282 for the second.

Compared with `O=C(CCc1ccccc1)NC(NC(=S)Nc1ccc(Cl)cc1)C(Cl)(Cl)Cl` (centres undefined), `Cc1cc(Cl)ccc1NC(=S)NCc1ccc(Cl)cc1` is lower in z-score: 0.241 for the first, 0.0662 for the second.

First: COc1ccc(N/C=C\C(=O)c2ccc3c(c2)OCO3)cc1OC
Second: CN(C)CCCC(=O)c1ccc2c(c1)OCO2
The z-score of the first is lower: -0.826 for the first, 0.68 for the second.

Going from `CCC(C)(C)n1nnnc1CN1CCC(O)(c2cccc(C(F)(F)F)c2)CC1` to `CN(C)S(=O)(=O)c1ccc(N2CCCC2)c(C(=O)NCc2cccc(C(F)(F)F)c2)c1`, the z-score falls from -0.0568 to -0.318.

Going from `c1ccc(Oc2ccc(-c3ccnc4nc(N5CCN(c6ccccc6)CC5)nn34)cc2)cc1` to `Cc1nnc(N2CCN(c3ccccc3)CC2)c2nn(-c3ccccc3F)c(C)c12`, the z-score falls from 0.0401 to -2.33.

Going from `Cc1occc1C(=O)Nc1c(F)cc(F)cc1Br` to `Cc1cccc(NC(=O)CCSc2nnc(Cc3ccccc3)o2)c1`, the z-score falls from 0.255 to -0.0112.

Compared with `Cc1ccc(S(=O)(=O)Nc2nc(C)c(NC(=O)Nc3ccc(Cl)cc3Cl)s2)cc1`, `Cc1ccc2c(c1)sc1nc(=O)n(-c3ccc(Cl)cc3)c(=O)n12` is higher in z-score: -0.401 for the first, -0.0321 for the second.

First: CC(=O)Nc1ccc(S(=O)(=O)NCC(=O)OCC(=O)N2CCc3ccccc32)cc1
Second: Cc1cccc(NC(=O)CCc2ccc(S(=O)(=O)NC3CCCCC3)cc2)c1
The z-score of the first is higher: -0.171 for the first, -0.429 for the second.

Going from `CCOCCCNC(=S)N1C2CCC1CC(NC(=O)NC13CC4CC(CC(C4)C1)C3)C2` (centres undefined) to `COC(=O)Nc1sc2c(c1C(=O)NC1CC1)CCCCCC2`, the z-score rises from -0.967 to 0.0798.

Going from `Cc1ccccc1OCCSCc1nc2ccccc2[nH]1` to `CCOc1ccccc1N1CCN(C(=O)CCCc2nc3ccccc3s2)CC1`, the z-score falls from -0.179 to -0.554.

Compared with `CCCCc1nc2sc3c(SCC(=O)NCc4ccco4)ncnc3c2c2c1CCC2`, `Cc1ccc(S(=O)(=O)c2nc(-c3ccco3)oc2SCC(=O)NCC2CCCO2)cc1` (centres undefined) is higher in z-score: -0.00368 for the first, 0.122 for the second.

First: Cc1ccc(S(=O)(=O)n2cnc3ccccc32)cc1
Second: Cc1ccc2c(c1)N(S(=O)(=O)c1ccc(F)cc1)C(C(C)(C)C)CO2 (centres undefined)
The z-score of the first is higher: 0.304 for the first, -0.0745 for the second.

Going from `COc1ccc(-c2nc(C(N)=O)c3[nH]c(=O)n(-c4ccccc4OC)c3n2)c(OC)c1` to `COc1ccc(-c2cc(C(=O)N3CCN(c4ncccn4)CC3)c3ccccc3n2)c(OC)c1`, the z-score rises from -0.97 to -0.629.

First: CCc1nnc(NC(=O)CSc2nc(C3CCCCC3)nc3ccccc23)s1
Second: CCc1nnc(NC(=O)Cn2nc(-c3ccc(OC)c(OC)c3)ccc2=O)s1
The z-score of the first is lower: 0.127 for the first, 0.2 for the second.

Going from `Cn1c(SCC(=O)NC(C)(C)C)nnc1-c1cnccn1` to `COc1ccc(OCC(=O)NNC(=O)c2cccnc2)cc1`, the z-score falls from 0.611 to -0.15.

First: N=c1n(CCO)c2ccccc2n1Cc1ccccc1Cl
Second: CN1OC(c2ccccc2)=C(CO)C1c1ccccc1 (centres undefined)
The z-score of the first is lower: -0.391 for the first, -0.299 for the second.

First: CC(=O)Nc1nc2c(ncn2COCCOC(C)=O)c(=O)[nH]1
Second: CCCOc1ccc(C(CC(=O)O)NC(=O)c2cccs2)cc1 (centres undefined)
The z-score of the first is higher: -0.00625 for the first, -0.0701 for the second.

First: COc1cccc(Nc2cc(N3CCOCC3)c3nonc3c2[N+](=O)[O-])c1
Second: Cc1cccc(-n2ncc3c(NCCN4CCOCC4)ncnc32)c1
The z-score of the first is higher: 0.638 for the first, -0.521 for the second.

First: Cc1ccc(C(=O)NCCCc2ccccc2)s1
Second: O=C(NCc1ccccc1)/C(=N\O)c1ccccc1
The z-score of the first is lower: 0.115 for the first, 0.503 for the second.

First: O=C(CSc1nc(N2CCCCC2)nc(N2CCCCC2)n1)NC1CCCCC1
Second: Cn1c(SCC(=O)N2CCCCCC2)nc2c([nH]c3ccccc32)c1=O
The z-score of the first is lower: -0.029 for the first, 0.0138 for the second.

Going from `Cn1c2c(c(=O)n(C)c1=O)C(c1ccc(Br)cc1)Nc1ccccc1O2` (centres undefined) to `Cc1[nH]n(-c2ccccc2)c(=O)c1C1(C(F)(F)F)C(=O)N(c2ccc(F)cc2)C2=C1C(=O)CC(C)(C)C2` (centres undefined), the z-score rises from -1.44 to -0.233.

Going from `COc1ccc(-c2cn3cccnc3n2)cc1F` to `COc1ccc(Cl)cc1C(=O)N1CCN(c2ccccn2)CC1`, the z-score falls from -0.215 to -0.477.

First: O=C1N=C(N2CCOCC2)S/C1=C/c1cccs1
Second: COc1ccccc1/C=C/C(=O)N1CCOCC1
The z-score of the first is higher: -0.0392 for the first, -0.054 for the second.

Compared with `O=C(Nc1ccc(F)cc1)N(Cc1cccs1)Cc1cc2cc3c(cc2[nH]c1=O)OCO3`, `COC(=O)c1ccc(-c2cc(C(=O)O)c3cc4c(cc3n2)OCCO4)cc1` is higher in z-score: -0.158 for the first, 0.138 for the second.

Going from `O=C(c1csc2c1CCCC2)N1CCN(c2ccc(F)cc2)CC1` to `O=C(Cn1c(=O)oc2ccccc21)N1CCN(c2ccc(N3CCOCC3)nn2)CC1`, the z-score falls from 0.178 to -0.0815.

Going from `O=P(Cc1ccccc1)(c1ccccc1)c1ccccc1` to `COc1ccc(/C=C2\SC(=NCc3ccccc3)N(Cc3ccccc3)C2=O)cc1OC`, the z-score rises from -0.059 to 0.162.

Compared with `O=C(C[n+]1cc(-c2ccccc2)n2c1CCC2)Nc1nc(-c2ccc(F)cc2)cs1`, `O=C(Cc1ccc(-c2ccccc2)cc1)N1CCOCC1` is lower in z-score: -0.13 for the first, -0.145 for the second.

Going from `COc1ccc(N(C(=O)Cn2cnc3ccccc32)C(C(=O)NC2CCCCC2)c2ccccc2)cc1` (centres undefined) to `O=C(NC1CCN(C(=O)N2c3ccccc3Sc3ccccc32)CC1)c1ccccc1F`, the z-score rises from -0.87 to -0.247.

First: COc1ccccc1/C=N/Nc1nccnc1Cl
Second: COc1cccc(/C=N/n2c(=S)n(C)c3ccccc32)c1OC
The z-score of the first is lower: -0.0648 for the first, 2.32 for the second.

Compared with `Cc1ccc(-c2cc(N)n3nc(-c4ccc(C)cc4)cc3n2)cc1`, `COc1ccc2c(=O)c(-c3cnn(-c4ccccc4)c3)c(C)oc2c1` is higher in z-score: -0.0653 for the first, 0.0559 for the second.

First: O=C(NCc1cccs1)C1CCC(CNS(=O)(=O)c2cccc3nsnc23)CC1 (centres undefined)
Second: CC(Cc1cccs1)NC(=O)Nc1ccc(Cl)c(Cl)c1 (centres undefined)
The z-score of the first is higher: 0.00195 for the first, -0.192 for the second.

Going from `CC(=O)Nc1cc(C(=O)N(C)Cc2ccco2)ccc1Sc1ccc(C)cc1` to `CCOc1ccc(N(CC(=O)NCc2ccco2)S(=O)(=O)c2ccc(OC)c(OC)c2)cc1`, the z-score rises from -1.5 to -0.204.

Going from `CCN(Cc1ccccc1)Cc1cc(OC)cc(OC)c1` to `COc1cc(C(=O)N/N=C(\C)Cc2ccccc2)cc(OC)c1OC`, the z-score falls from 1.4 to 0.199.

Going from `COCCCNCCOc1ccc(C)cc1[N+](=O)[O-]` to `COCCCNCC1C(Oc2ccc(Cl)cc2)C(=O)N1c1ccccc1C` (centres undefined), the z-score rises from -0.153 to 0.258.

Going from `CC(C)=CCC/C(C)=C/C=N/NC(=O)c1cccc([N+](=O)[O-])c1` to `COc1ccc(C(C)=O)c2c(O)cccc12`, the z-score rises from -1.06 to -0.23.

Compared with `COc1ccc(N(CC(=O)NCCC2=CCCCC2)S(C)(=O)=O)cc1`, `Cc1ccc(N(Cc2ccc(C(=O)NCCSc3ccccn3)cc2)S(C)(=O)=O)cc1C` is lower in z-score: 0.157 for the first, -0.812 for the second.

Compared with `O=S(=O)(Nc1ccccn1)c1cnc(Cl)c(Br)c1`, `O=C(NCCc1cn2ccccc2n1)c1ccc(Br)o1` is lower in z-score: 0.232 for the first, -0.00828 for the second.

Going from `O=C(c1ccco1)N1CCN(CCCCN2C(=O)c3ccccc3C2=O)CC1` to `Cc1nn(C)c(C(=O)N2CCN(C(=O)c3ccco3)CC2)c1[N+](=O)[O-]`, the z-score rises from -0.408 to -0.127.

Compared with `Cc1nc([N+](=O)[O-])c(N2CCN(Cc3ccccc3)CC2)n1Cc1ccccc1`, `COC(=O)c1ccc(N2CCN(S(=O)(=O)c3ccccc3)CC2)c([N+](=O)[O-])c1` is higher in z-score: -0.497 for the first, -0.111 for the second.

Compared with `COC(=O)CSc1nc(C)cc(C(F)(F)F)c1C#N`, `Cc1sc(NC(=S)NC(=O)c2ccccc2)c(C#N)c1C` is higher in z-score: -0.121 for the first, 1.42 for the second.

First: Cc1cccc(-n2ncc3c(N4CC(C)CC(C)C4)ncnc32)c1 (centres undefined)
Second: Cc1cccc(Nc2ncnc3nc[nH]c23)c1C
The z-score of the first is lower: -0.189 for the first, 0.813 for the second.

First: O=C(CN1CCCCC1)Nc1cccc(Cl)c1Cl
Second: O=C1CC(c2ccc(S(=O)(=O)N3CCCCC3)cc2)CN1 (centres undefined)
The z-score of the first is higher: -0.108 for the first, -2.53 for the second.

Compared with `COc1ccc(OC)c(C2CC(=O)N3CN(c4ccccc4F)CSC3=C2C#N)c1` (centres undefined), `COc1cccc(C(=O)NC(=S)Nc2ccc3c4c(cccc24)CC3)c1` is higher in z-score: -0.436 for the first, 2.83 for the second.

Compared with `CN(C)Cc1cc(CN(C)C)c(O)c(CCc2ccccc2)n1`, `c1ccc(-c2nc(NCC3CCCO3)c3ccccc3n2)nc1` (centres undefined) is higher in z-score: -0.277 for the first, -0.0294 for the second.

Going from `CCS(=O)(=O)c1ccc2c(c1)N(S(=O)(=O)c1ccc(OC)cc1)CC(C(=O)O)O2` (centres undefined) to `O=C(NCc1ccc2c(c1)OCO2)c1ccc(S(=O)(=O)N2CCCCC2)cc1`, the z-score rises from -0.678 to -0.0895.

First: CCCCCCC1/C(=N/O)CCC1C(=O)OC (centres undefined)
Second: CNC(=O)CCSc1ccc(C)cc1
The z-score of the first is lower: 0.164 for the first, 1.02 for the second.

Compared with `Cc1ccc(S(=O)(=O)N2CCC(C(N)=O)CC2)c(C)c1C`, `CCOC(=O)c1ccc(NS(=O)(=O)c2cc(C)ccc2OC)cc1` is higher in z-score: 0.396 for the first, 0.456 for the second.

Compared with `CCN1C(=O)S/C(=C/c2ccc(Sc3nc4ccccc4[nH]3)o2)C1=O`, `CCOc1cc(C(=O)OCC(=O)c2c[nH]c3ccccc23)ccc1OCC(=O)N1CCOCC1` is higher in z-score: -0.108 for the first, -0.0857 for the second.

First: O=C(c1ccccc1)c1ccc(OCC(O)CN2CCN(S(=O)(=O)N3CCCCC3)CC2)cc1 (centres undefined)
Second: Cc1ccc(S(=O)(=O)N(CC(=O)N2CCOCC2)CC(=O)N2CCOCC2)cc1
The z-score of the first is lower: 0.198 for the first, 0.284 for the second.

Work on `COc1ccc(OCCn2c(C)c(/C=N/n3cnnc3)c3ccccc32)cc1` yielded a z-score of 0.371.

For `O=C(Nc1nnc(-c2cccs2)o1)c1cccc(Oc2ccccc2)c1`, the z-score was active: 14.
For `CC1CCCC(n2c(=S)[nH]c3ccccc3c2=O)C1C` (centres undefined), the z-score was active: 9.07.
